The supplement of paper PMC8728848
The other results are listed elsewhere or left out.

How the values were obtained:
Experiment in all cases: glycan array binding signal (z-score within array); higher = stronger binding
Conditions in all cases: glycan notation: IUPAC condensed, linker removed
[1] = target: Fuc(a1-2)Gal
Outline: (§1)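 Glycan array data were curated from 3228 arrays in the Consortium for Functional Glycomics database and kept only where the protein sequence was available. Glycan names were converted to IUPAC-condensed notation, and columns mapping to the same glycan were averaged. The binding signal is a within-array Z-score, averaged across arrays of the same protein sequence at different concentrations or buffers and across linkers. Negative Z-scores can be read as non-binding.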

[2] = target: Fuc(a1-2)Gal(b1-3)GalNAc
Outline: as §1

[3] = target: Fuc(a1-2)Gal(b1-3)GalNAc(a1-3)[Fuc(a1-2)]Gal(b1-4)Glc
Outline: as §1

[4] = target: Fuc(a1-2)Gal(b1-3)GalNAc(a1-3)[Fuc(a1-2)]Gal(b1-4)GlcNAc
Outline: as §1

[5] = target: Fuc(a1-2)Gal(b1-3)GalNAc(b1-3)Gal
Outline: as §1

[6] = target: Fuc(a1-2)Gal(b1-3)GalNAc(b1-3)Gal(a1-4)Gal(b1-4)Glc
Outline: as §1

[7] = target: Fuc(a1-2)Gal(b1-3)GalNAc(b1-4)[Neu5Ac(a2-3)]Gal(b1-4)Glc
Outline: as §1

[8] = target: Fuc(a1-2)Gal(b1-3)GlcNAc
Outline: as §1

[9] = target: Fuc(a1-2)Gal(b1-3)GlcNAc(b1-2)Man(a1-3)[Fuc(a1-2)Gal(b1-3)GlcNAc(b1-2)Man(a1-6)]Man(b1-4)GlcNAc(b1-4)GlcNAc
Outline: as §1

[10] = target: Fuc(a1-2)Gal(b1-3)GlcNAc(b1-2)Man(a1-3)[Fuc(a1-2)Gal(b1-3)GlcNAc(b1-2)Man(a1-6)]Man(b1-4)GlcNAc(b1-4)[Fuc(a1-6)]GlcNAc
Outline: as §1

[11] = target: Fuc(a1-2)Gal(b1-3)GlcNAc(b1-3)Gal(b1-4)Glc
Outline: as §1

[12] = target: Fuc(a1-2)Gal(b1-3)GlcNAc(b1-3)GalNAc
Outline: as §1

[13] = target: Fuc(a1-2)Gal(b1-3)GlcNAc(b1-3)[Fuc(a1-2)Gal(b1-3)GlcNAc(b1-6)]GalNAc
Outline: as §1

[14] = target: Fuc(a1-2)Gal(b1-3)GlcNAc(b1-3)[Gal(b1-4)GlcNAc(b1-6)]Gal(b1-4)Glc
Outline: as §1

[15] = target: Fuc(a1-2)Gal(b1-3)GlcNAc(b1-3)[Neu5Ac(a2-6)Gal(b1-4)GlcNAc(b1-6)]Gal(b1-4)Glc
Outline: as §1

[16] = target: Fuc(a1-2)Gal(b1-3)GlcNAc6S
Outline: as §1

[17] = target: Fuc(a1-2)Gal(b1-3)[Fuc(a1-4)]GlcNAc
Outline: as §1

[18] = target: Fuc(a1-2)Gal(b1-3)[Fuc(a1-4)]GlcNAc(b1-2)Man(a1-3)[Fuc(a1-2)Gal(b1-3)[Fuc(a1-4)]GlcNAc(b1-2)Man(a1-3)]Man(b1-4)GlcNAc(b1-4)GlcNAc
Outline: as §1

[19] = target: Fuc(a1-2)Gal(b1-3)[Fuc(a1-4)]GlcNAc(b1-2)Man(a1-3)[Fuc(a1-2)Gal(b1-3)[Fuc(a1-4)]GlcNAc(b1-2)Man(a1-6)]Man(b1-4)GlcNAc(b1-4)[Fuc(a1-6)]GlcNAc(b1-4)[Fuc(a1-6)]GlcNAc
Outline: as §1

[20] = target: Fuc(a1-2)Gal(b1-3)[Fuc(a1-4)]GlcNAc(b1-3)[Fuc(a1-3)[Gal(b1-4)]GlcNAc(b1-6)]Gal(b1-4)Glc
Outline: as §1

[21] = target: Fuc(a1-2)Gal(b1-3)[Fuc(a1-4)]GlcNAc(b1-3)[Gal(b1-4)GlcNAc(b1-6)]Gal(b1-4)Glc
Outline: as §1

[22] = target: Fuc(a1-2)Gal(b1-4)Glc
Outline: as §1

[23] = target: Fuc(a1-2)Gal(b1-4)Glc6S
Outline: as §1

[24] = target: Fuc(a1-2)Gal(b1-4)GlcNAc
Outline: as §1

[25] = target: Fuc(a1-2)Gal(b1-4)GlcNAc(b1-2)Man
Outline: as §1

[26] = target: Fuc(a1-2)Gal(b1-4)GlcNAc(b1-2)Man(a1-3)[Fuc(a1-2)Gal(b1-4)GlcNAc(b1-2)Man(a1-6)]Man(b1-4)GlcNAc(b1-4)GlcNAc
Outline: as §1

[27] = target: Fuc(a1-2)Gal(b1-4)GlcNAc(b1-2)Man(a1-3)[Fuc(a1-2)Gal(b1-4)GlcNAc(b1-2)Man(a1-6)]Man(b1-4)GlcNAc(b1-4)[Fuc(a1-6)]GlcNAc
Outline: as §1

[28] = target: Fuc(a1-2)Gal(b1-4)GlcNAc(b1-2)[Fuc(a1-2)Gal(b1-4)GlcNAc(b1-4)]Man(a1-3)[Fuc(a1-2)Gal(b1-4)GlcNAc(b1-2)Man(a1-6)]Man(b1-4)GlcNAc(b1-4)GlcNAc
Outline: as §1

[29] = target: Fuc(a1-2)Gal(b1-4)GlcNAc(b1-3)Gal(b1-4)GlcNAc
Outline: as §1

[30] = target: Fuc(a1-2)Gal(b1-4)GlcNAc(b1-3)Gal(b1-4)GlcNAc(b1-2)Man(a1-3)[Fuc(a1-2)Gal(b1-4)GlcNAc(b1-3)Gal(b1-4)GlcNAc(b1-2)Man(a1-6)]Man(b1-4)GlcNAc(b1-4)GlcNAc
Outline: as §1

B1: ACA (Amaranthus caudatus) (protein)
chain: MAGLPVIMCLKSNNNQKYLRYQSDNIQQYGLLQFSADKILDPLAQFEVEPSKTYDGLVHIKSRYTNKYLVRWSPNHYWITASANEPDENKSNWACTLFKPLYVEEGNMKKVRLLHVQLGHYTQNYTVGGSFVSYLFAESSQIDTGSKDVFHVIDWKSIFQFPKRYVTFKGNNGKYLGVITINQLPCLQFGYDNLNDPKVAHEMFVTSNGTICIKSTYMNKFWRLSTDDWILVDGNDPRETNEAAALFRSDVHDFNVISLLNMQKTWFIKRFTSGKPGFINCMNAATQNVDETAILEIIELGSNN
Q: For B1, which “glycan array binding signal (z-score)” value [1] is on record?
A: 0.02

Q: What about the “glycan array binding signal (z-score)” value [2] of the same binder?
A: -0.388

Q: And the “glycan array binding signal (z-score)” value [3]?
A: -0.48

Q: And the “glycan array binding signal (z-score)” value [4]?
A: -0.623

Q: What about the “glycan array binding signal (z-score)” value [5] of the same binder?
A: -0.347

Q: What about the “glycan array binding signal (z-score)” value [6] of the same binder?
A: -0.228

Q: And the “glycan array binding signal (z-score)” value [7]?
A: -0.071

Q: And the “glycan array binding signal (z-score)” value [8]?
A: -0.378

Q: And the “glycan array binding signal (z-score)” value [9]?
A: 0.619

Q: What about the “glycan array binding signal (z-score)” value [10] of the same binder?
A: -0.082

Q: What about the “glycan array binding signal (z-score)” value [11] of the same binder?
A: -0.448

Q: What about the “glycan array binding signal (z-score)” value [12] of the same binder?
A: -0.325

Q: And the “glycan array binding signal (z-score)” value [13]?
A: 1.01

Q: And the “glycan array binding signal (z-score)” value [14]?
A: -0.167

Q: What about the “glycan array binding signal (z-score)” value [15] of the same binder?
A: -0.274

Q: And the “glycan array binding signal (z-score)” value [16]?
A: -0.038

Q: What about the “glycan array binding signal (z-score)” value [17] of the same binder?
A: -0.296

Q: What about the “glycan array binding signal (z-score)” value [18] of the same binder?
A: 0.186

Q: What about the “glycan array binding signal (z-score)” value [19] of the same binder?
A: 0.076

Q: And the “glycan array binding signal (z-score)” value [20]?
A: -0.363

Q: What about the “glycan array binding signal (z-score)” value [21] of the same binder?
A: -0.302

Q: And the “glycan array binding signal (z-score)” value [22]?
A: -0.08

Q: What about the “glycan array binding signal (z-score)” value [23] of the same binder?
A: 0.198

Q: What about the “glycan array binding signal (z-score)” value [24] of the same binder?
A: -0.106

Q: And the “glycan array binding signal (z-score)” value [25]?
A: 0.126

Q: And the “glycan array binding signal (z-score)” value [26]?
A: 0.993

Q: And the “glycan array binding signal (z-score)” value [27]?
A: -0.813

Q: And the “glycan array binding signal (z-score)” value [28]?
A: 0.579

Q: What about the “glycan array binding signal (z-score)” value [29] of the same binder?
A: -0.247

Q: What about the “glycan array binding signal (z-score)” value [30] of the same binder?
A: 0.297
